According to the supplement of paper PMC11417369:
The list shows a part of the results.

system: PF3D7_0420300 AP2 domain 1 (GST-tagged); assay: gcPBM binding intensity (ln(normalized median fluorescence intensity)); higher = stronger DNA binding
Procedure, shortened: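 Using an Agilent 4 × 180k array, primer-extended double-stranded 36-bp intergenic genomic probes and negative controls were exposed for 1 h to GST-fused P. falciparum DNA-binding domains expressed in E. coli. Binding was carried out in 1× PBS with 1% milk, 0.2 mg/ml BSA, 0.5% salmon testes DNA and 0.03% Triton X-100, and protein was detected with Alexa488 anti-GST antibody and a 488 nm scan. Binding intensity is the highest Masliner-normalised natural-log median intensity across replicate spots of either probe orientation.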

Sequence | gcPBM binding intensity (ln)
AGGACACATATATGCAAAAAAAAAAAAAAAAAAAAA [TGCATGCA_negctrl_site427] | 8.44
TTCCGAACGACCTAAAGTACATGTATTTCAACTTTT [XGTACX_site1220] | 9.2
ATAAAAAACAGTGGCACACATTATGTATCCACCTTT [CACACA_site5958] | 9.29
ATGCATATAATTATATGTACATATAAGAAATATATA [XGTACX_site517] | 9.25
CATTTATTATGATAAAGTACTTAAATTAATAGATAA [XGTACX_site3566] | 9.02
AAAAAAAATTCCAGTACACACAATAATACTAAAAAT [CACACA_site2801] | 9.88
AAAAATTACAAAAATGCATGTACTATTCATATTTTT [TGCATGCA_site918] | 9.17
ATGAGTAACATATTTGTGCACATATGGTTATTTTTA [GTGCAC_site9541] | 9.27
TTTTTTTCTCTTTTTATTACAAAAAGGGTTTATATA [TGCATGCA_negctrl_site75] | 8.86
ATTATATTAATATATATATATATATATATAATAATA [CACACA_negctrl_site437] | 8.86
ATGAAAAAATTTAAATGTACATTACATATATTTATT [XGTACX_site2524] | 9.14
TAATATTATATTATATGTACATAACAAATTATATTT [XGTACX_site4296] | 9.18
TAATTGAGCAAATGAGTGCACAGCATAAAGTATAGT [GTGCAC_site9497] | 9.54
AAATTTAAAATAAGTAGTACATAATATAAATAAATA [XGTACX_site3592] | 9.38
GTACTTGTATTATGCACACATATAATTAAACATATA [CACACA_site3312] | 9.41
TATAAAAGAAACTATACACACATATTTTAAATATTT [CACACA_site2753] | 9.47
TAAGCCTTTCTATTATGTACTTATTAAAACATGTAG [XGTACX_site8022] | 9.13
CTTATATTAAAACACACACACGCACAAAACAGAAAT [CACACA_site1462] | 10.2
AAATTTATTTCTGTGTGTCCACAAAAAAAAATCTTT [XGTACX_site691] | 9.03
TTTTTTTTTTTCAATAGTACTTTCCATTTACATATA [XGTACX_site3889] | 9.24
TTTTATAAATACACACGTACGTGTGCATAACGTTTT [XGTACX_site3199] | 9.41
AAAAAAAATAATATTGTACACACATAAATTCTTTGT [CACACA_site8654] | 9.48

Sequence | gcPBM binding intensity (ln)
TACTTTTTAAAAATGTTTTATATAATAAAAAGATAT [CACACA_negctrl_site678] | 8.91
ATATCATAAGTAGAAACACACAATTAGATTTTTTCC [CACACA_site2353] | 9.42
ATTATAAACCAGAATGCATGTAGATGAATCTTTTCT [TGCATGCA_site284] | 9.2
TAAAAATATAAAACATGTACATATATGCATATATTT [XGTACX_site8093] | 9.31
TTTTGAAAGTTTTTGTGTCCACATATATTTATATAT [XGTACX_site6563] | 9.18
GTTTAAAGTTGAACAAGTACACATTTATATAAGGCA [XGTACX_site351] | 9.29
TTTATTTATTACTAAAGTACTAAATCATATAATTAT [XGTACX_site3654] | 8.93
TTTAATAAAAAAATTAAAAATAAAGAAAAAAAAAAA [CACACA_negctrl_site1464] | 9.05
AAATATATATAAAACTCACACATTATCTTATAACCA [CACACA_site5268] | 9.45
TATGTGTATACAATATGTACATATGTTAACTTGTAT [XGTACX_site872] | 9.31
AAAAAATAATATTGTACACACATAAATTCTTTGTCA [CACACA_site5187] | 9.38
ATGTATGGAAATTTTACACACAAGAGTAGTTTAAAA [CACACA_site1710] | 9.4
TTAAATAAATATAAGTGTACATACACACTTTACAAT [XGTACX_site6348] | 9.22
GCATATGTTCAGCGTTGTACATAAAAAAAAACATAT [XGTACX_site5974] | 9.07
GCGTAATCTATTTGCACACTTATTTGTTCTTAAAAA [CACACA_site672] | 9.39
TGAGATAACAAAAGTTGTACTTTTTTTTTTTTTTTT [XGTACX_site3004] | 8.89
ATATATATATGTATGTATATATATATATATGTTTGA [GTGCAC_negctrl_site561] | 9.24
GGGGACGCGGGTGGGGGTACTCACACTATGCAAAAT [XGTACX_site7745] | 9.97
GTATCAATAAAAAACAGTACATATATAATATATTTA [XGTACX_site1083] | 9.27
TTCATATAGAATTGTACACACAAAAACGACATTGTG [CACACA_site7061] | 9.53
AAAAAAAAGGAAATAACACACATGTATATATCTATA [CACACA_site6856] | 9.53
ATATATGTTCCTTTTACACACATAATCTTTTTTTTA [CACACA_site2661] | 9.84
